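48-hour exposure; five concentrations; linearly interpolated endpoints. Abbreviation: GI50, concentration required for 50% inhibition of growth. The concentration for full growth arrest is given as TGI.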
test system: NCI-H322M lung; experiment: NCI anticancer screen, dose series, 48 h

Point of comparison: `CC(=O)/C(N=Nc1ccc2oc(=O)ccc2c1)=C(\C)O`, GI50 3.54 µM. Against it:
- COc1ccc([C@@H]2[C@@H](O)C(=O)N2c2cc(OC)c(OC)c(OC)c2)cc1F — 36-fold lower, 0.0984 µM
- CC1=C2C(=C[C@@](C)(COC(=O)c3ccc(S(=O)(=O)F)cc3)[C@@H]2OC(=O)c2ccc(S(=O)(=O)F)cc2)C(=O)[C@](C)(O)C12CC2 — 1.8-fold lower, 1.93 µM
- CNC(=O)c1cc(N2CCc3cc(NC(=O)Nc4ccc(N5CCN(C)CC5)c(C(F)(F)F)c4)ccc32)ccn1 — within 1.5-fold, 4.08 µM
- CC1=C(C)C(=O)C(Nc2cccc(C(F)(F)F)c2)=C(Cl)C1=O — 6.4-fold higher, 22.7 µM
- CCCC(=O)NC(c1cccnc1)c1ccc2c(C)ccnc2c1O (stereo unspecified) — 4.2-fold lower, 0.84 µM
- C[C@]12CC[C@H]3[C@@H](CC=C4C[C@@H](O)CC[C@@]43C)[C@@H]1CC[C@@H]2[C@](C)(O)CCc1cccnc1 — 1.7-fold higher, 5.87 µM
- COc1cc(/C=C/C(=O)c2ccc(C)cc2)ccc1Oc1nc(NCCO)nc(N2CCOCC2)n1 — 1.8-fold higher, 6.24 µM

Point of comparison: `CC1=C2C(=C[C@@](C)(COC(=O)c3ccc(S(=O)(=O)F)cc3)[C@@H]2OC(=O)c2ccc(S(=O)(=O)F)cc2)C(=O)[C@](C)(O)C12CC2`, TGI 6.27 µM. Against it:
- COc1ccc([C@@H]2[C@@H](O)C(=O)N2c2cc(OC)c(OC)c(OC)c2)cc1F — higher, > 100 µM
- CNC(=O)c1cc(N2CCc3cc(NC(=O)Nc4ccc(N5CCN(C)CC5)c(C(F)(F)F)c4)ccc32)ccn1 — within 1.5-fold, 8.75 µM
- CC1=C(C)C(=O)C(Nc2cccc(C(F)(F)F)c2)=C(Cl)C1=O — higher, > 100 µM
- CCCC(=O)NC(c1cccnc1)c1ccc2c(C)ccnc2c1O (stereo unspecified) — higher, > 100 µM
- C[C@]12CC[C@H]3[C@@H](CC=C4C[C@@H](O)CC[C@@]43C)[C@@H]1CC[C@@H]2[C@](C)(O)CCc1cccnc1 — higher, > 100 µM
- COc1cc(/C=C/C(=O)c2ccc(C)cc2)ccc1Oc1nc(NCCO)nc(N2CCOCC2)n1 — higher, > 100 µM
- CC(=O)/C(N=Nc1ccc2oc(=O)ccc2c1)=C(\C)O — 2.8-fold higher, 17.8 µM
